Measurements taken from patent publication US20240409647A1, “BISPECIFIC BINDING PROTEINS AGAINST ALARMINS AND USES THEREOF” (SINOMAB BIOSCIENCE LIMITED, priority 2022, published 2024).

System: Normal human DCs
Experiment: Dendritic cell potency assay, TSLP-induced CCL17 production
Type: cell-based
Details: 5 μg/mL; TSLP 10 ng/mL, 5 days
Excerpt: TSLP from inflamed epithelium promotes maturation of dendritic cells (DCs) to prime Th2 responses via CCL17, which induces chemotaxis of CD4+ T cells to mediate inflammation (Kitajima and Ziegler. 2013. “Cutting Edge: Identification Of The Thymic Stromal Lymphopoietin-Responsive Dendritic Cell Subset Critical For Initiation Of Type 2 Contact Hypersensitivity”. J Immunol 191: 4903-4907; Bleck et al. 2015. “Co-Expression Of Type 2 Immune Targets In Sputum-Derived Epithelial And Dendritic Cells From Asthmatic Subjects”. J Allergy Clin Immunol 136: 619-627.e5). Normal human DCs were obtained from Lonza (Bend, OR). The DCs were cultured in LGM-3 medium (Lonza). TSLP (10 ng/mL) is added into the DC cultures for 5 days in the presence of 5 μg/mL of SM17, IgG4 isotype control (Sino Biological), SM17-TSLPR bsBp (SM17 fused with TSLP receptor extracellular domain) or SM17-anti-TSLP bsBp 2 #. The supernatants are harvested and the levels of CCL17 measured by ELISA following the manufacturer's specification (R&D systems).

B1: SM17-hTSLPR: SM17 fused with TSLP receptor extracellular domain; HC SEQ ID NO: 67, LC SEQ ID NO: 33 (antibody)
heavy: MDLLHKNMKHLWFFLLLVAAPRWVLSQVQLVQSGAEVKKPGASVKVSCKASGYTFISYWMNWVRQAPGQGLEWMGRIDPYDSEIQYNQKFKDRVTMTRDTSISTAYMELSRLRSDDTAVYYCARSGGFDWFAYWGQGTLVTVSSASTKGPSVFPLAPCSRSTSESTAALGCLVKDYFPEPVTVSWNSGALTSGVHTFPAVLQSSGLYSLSSVVTVPSSSLGTKTYTCNVDHKPSNTKVDKRV[sequence of human IgG4 Fc with S228P (EU numbers) not given]GGGSGGGGSGGGGSQGGAAEGVQIQIIYFNLETVQVTWNASKYSRTNLTFHYRFNGDEAYDQCTNYLLQEGHTSGCLLDAEQRDDILYFSIRNGTHPVFTASRWMVYYLKPSSPKHVRFSWHQDAVTVTCSDLSYGDLLYEVQYRSPFDTEWQSKQENTCNVTIEGLDAEKCYSFWVRVKAMEDVYGPDTYPSDWSEVTCWQRGEIRDACAETPTPPKPKLSK
light: DIQMTQSPSSLSASVGDRVTITCRASENINSNLAWYQQKPGKAPKLLLYDVTNLADGVPSRFSGSGSGTDYTLTISSLQPEDFATYYCQHFWGPPYTFGGGTKVEIKRTVAAPSVFIFPPSDEQLKSGTASVVCLLNNFYPREAKVQWKVDNALQSGNSQESVTEQDSKDSTYSLSSTLTLSKADYEKHKVYACEVTHQGLSSPVTKSFNRGEC
Q: B1 was tested. Which “TSLP-induced CCL17 production in DCs (in words)” value did it give?
A: efficient in suppressing TSLP-induced CCL17 production
